Data reported in PubChem BioAssay AID624171 (National Center for Advancing Translational Sciences (NCATS), 2012).
Out of some 410,000 compounds screened, about 1,200 (0.29%) were called active. Inconclusive results, whose numbers are uncertain, are shown with a selection of clear calls. The call rests on the fitted dose curve; in most records, active means well fitted activation curve with a large enough effect; inconclusive means small, poorly fitted or top-dose-only effect; inactive means flat fitted curve, though single readings scatter. Potencies of inconclusive entries are doubtful fits and often do not repeat.

Test: qHTS of Nrf2 Activators; further: nearly all actives have a fitted effect of over 65% in size; on activation: % of control where 0% means no effect
Details: AREc32 ARE-luciferase reporter (MCF7-derived line), luminescence, 24 h; activation: at 46.1 µM (top of the series)
How it was run: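 Quantitative high-throughput format: AREc32 reporter cells, 1000 per well, received compound by pin transfer and were incubated 24 hr at 37 deg C, 5% CO2, before Steady-Glo luminescence detection.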
Potency means the concentration at half of the fitted maximal effect; tags describe the fitted curve by direction and shape.

Potency, active:
CCC(C)N(CC(=O)Nc1cccc(C)c1C)C(=O)CCl (stereo not given) 7.94 µM

Potency, inconclusive:
Cc1nc2ccc(Br)cn2c1C(=O)N/N=C\c1ccccc1[N+](=O)[O-] 3.98 µM [activator, single point]
CCOc1ccccc1C1C(C#N)=C(N)Nc2onc(-c3ccccc3)c21 (stereo not given) 31.6 µM [activator, single point]
Cn1c(=O)[nH]c(=O)c2c1nc(N/N=C/C(Br)=C/c1ccccc1)n2CCO 25.1 µM [activator, single point]
Nc1nc(NCc2ccco2)nc(NCCO)c1[N+](=O)[O-] 11.2 µM [activator, partial curve]
O=C(/C=C/c1ccccc1Cl)Nc1ccncc1 35.5 µM [activator, single point]
Clc1nc(Cl)c2ncn(-c3ccccc3)c2n1 28.2 µM [activator, single point]
CC1CCC(C(C)C)C2=C1C(C#N)(C#N)C(C#N)(C#N)C(c1ccccc1)N2 (stereo not given) 31.6 µM [activator, single point]
CN(CCC(=O)c1ccccc1)CCC(=O)c1ccccc1 31.6 µM [activator, single point]
COc1ccc(S(=O)(=O)Nc2ccc3c(c2)n(C)c(=O)n3C)cc1OC 28.2 µM [activator, single point]
COc1cccc(-c2[nH]nc3c2C(c2ccoc2)C(C#N)=C(N)O3)c1 (stereo not given) 22.4 µM [activator, partial curve, poor fit]
O=C(Nc1ncccn1)c1ccc(Cl)c([N+](=O)[O-])c1 17.8 µM [activator, single point]
Cn1nnc2c[n+](CC(=O)c3ccc4ccccc4c3)cc(Br)c21 20 µM [activator, single point]
C#CCn1c(=NC(=O)c2cccs2)sc2cccc(OC)c21 3.55 µM [activator, full curve, poor fit]
Cc1ccsc1/C=N/Nc1nc(Cl)c(Cl)cc1Cl 7.08 µM [activator, partial curve]
CN1CCN(c2ccc(NC(=O)c3ccc(-c4cccc([N+](=O)[O-])c4)o3)cc2)CC1 15.8 µM [activator, partial curve, poor fit]
CCCN(C(=O)c1ccco1)c1nnc(-c2ccccc2C)s1 3.16 µM [activator, full curve]
COc1cccc(C(=O)N/N=C/C(Br)=C/c2ccccc2)c1 17.8 µM [activator, partial curve, poor fit]
O=c1c(Cl)c(Cl)cnn1Cc1nnc(-c2ccc(Cl)cc2)o1 3.55 µM [activator, single point]
O=C(CCCn1cnc([N+](=O)[O-])n1)Nc1cccc2ccccc12 28.2 µM [activator, single point]
O=C(ONC(=O)C1C2C=CC(C2)C1C(=O)NOC(=O)c1ccccc1)c1ccccc1 (stereo not given) 28.2 µM [activator, single point]
COCCCNC(=O)C[C@H]1C[C@H](C(=O)N(C(C)C)C(C)C)[C@@]2(C)c3[nH]c4cc(-c5ccco5)ccc4c3CCN2C1=O 17.8 µM [activator, single point]
C(=N\Nc1ccccn1)/c1c[nH]c2ccccc12 12.6 µM [activator, partial curve]
O=C(COC(=O)c1cccs1)c1ccccc1 17.8 µM [activator, single point]
Cc1nnc(N2C(=O)c3cccc4c([N+](=O)[O-])ccc(c34)C2=O)s1 20 µM [activator, single point]
O=c1c(Cl)c(Cl)cnn1-c1ccccc1 3.16 µM [activator, single point]
COC(=O)c1cc(S(=O)(=O)C(C)C)c(S(C)=O)s1 (stereo not given) 7.94 µM [activator, partial curve]
Cc1cc(C)n(-c2nc3ccccc3c(=O)n2OCc2ccc(F)cc2)n1 10 µM [activator, partial curve, poor fit]
S=C1SCN(Cc2cccnc2)CN1Cc1cccnc1 2.82 µM [activator, single point]
O=[N+]([O-])c1cccc(-c2nn(-c3ccccc3)cc2CO)c1 20 µM [activator, single point]
O=c1c2ccccc2oc2ccc(-c3ccc4cc[nH]c4c3)cc12 2.82 µM [activator, full curve, poor fit]
COc1cc(Nc2ccccc2Cl)c([N+](=O)[O-])nc1[N+](=O)[O-] 20 µM [activator, single point]

activation, inactive:
COC(=O)Cn1c2[n+](c3ccccc31)CC(O)CS2 (stereo not given) -1.43%
COCCCNC(=O)CSc1nc2nc(C)c(Cc3ccccc3Cl)c(C)n2n1 -0.143%
CC1(C)CC(=O)C2=C(C1)NC(=O)NC2c1ccc(Cl)cc1 (stereo not given) -0.183%
NC(=O)C1CCN(C(=O)CN2C(=O)c3ccccc3S2(=O)=O)CC1 0.242%
Cc1ccc(C)c(NC(=O)c2ccc3ccccc3n2)c1 6.32%
Cc1ccc(C)c(NC(=O)Cn2c(=O)n(CC3CCCO3)c(=O)c3ccccc32)c1 (stereo not given) 0.25%
CCOC(=O)c1[nH]c(C)c(C(=O)NC(CC)Cc2ccccc2)c1C (stereo not given) -0.642%
O=C(NCCCO)c1c(O)c2cccc3c2n(c1=O)CCC3 3.29%
Cc1ccn(C(=O)c2cc3c(C)nn(-c4ccccc4)c3s2)n1 0.13%
CC1CCCN(S(=O)(=O)c2cccc(C(=O)NCCCN3CCCC3=O)c2)C1 (stereo not given) 0.122%
COC(=O)c1c(NC(=O)Cc2coc3cc(C)ccc23)sc2c1CCCC2 0.217%
CC(=O)N1CCc2c(sc3c2c(=O)n(-c2ccc(C)cc2)c(=O)n3Cc2c(F)cccc2Cl)C1 -0.607%
O=C(NCc1ccc(Cl)cc1)c1ccc(OCC2CCCO2)cc1 (stereo not given) 2.02%
